Source: PubChem BioAssay (NCATS)
Values joined by “and” are separate entries in the source; they are usually repeats but may differ in a detail not shown here. Identical values can stand only once. Inconclusive means that the source gave no clear call. Such entries were picked first, then a sample of the others. For some of these results: No potency is given beside an inconclusive call; the fits are too rough. Active and inactive are the calls of the source. Unless noted, the call rests on the fitted dose curve; in most records, active means well fitted curve in the direction sought with a large enough effect; inconclusive means small, poorly fitted or top-dose-only effect, or another doubt; inactive means no such curve, though single readings can be large; an effect the other way counts as inactive or inconclusive.

Legend:
[1] = Cytometry Cell-Based qHTS for Inhibitors of the mTORC1 Signaling Pathway in MEF cells (AID 2668); settings: mTORC1 pathway readout; series mostly up to 38.3 µM;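 further: Tsc2-/- p53-/- mouse embryonic fibroblasts stably re-expressing wild-type Tsc2; percent cells positive for phospho-rpS6 Ser235/236 relative to propidium iodide stain; plate controls were DMSO wells for no effect and 7.5 nM rapamycin control wells for full effect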
Summary of the method: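 Pathway inhibition in WT Tsc2-rescued Tsc2-/-, p53-/- MEFs is measured as the Alexa-488 phospho-rpS6 to propidium iodide intensity ratio after 24 hrs of compound at 37 degree Celsius. PI-stained cell number gives viability.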

[2] = molecular target: Lysine-specific demethylase 5B (Homo sapiens) (UniProt Q9UGL1); experiment: Optimization screen for KDM5B Histone Demethylases FDH coupled qHTS against the LOPAC library (AID 1347166); settings: KDM5B demethylation, FDH-coupled NADH fluorescence (FDH is formaldehyde dehydrogenase); series mostly up to 57.5 µM; further: 0% is about no effect
UniProt Q9UGL1, sequence (Q9UGL1 whole entry, looked up): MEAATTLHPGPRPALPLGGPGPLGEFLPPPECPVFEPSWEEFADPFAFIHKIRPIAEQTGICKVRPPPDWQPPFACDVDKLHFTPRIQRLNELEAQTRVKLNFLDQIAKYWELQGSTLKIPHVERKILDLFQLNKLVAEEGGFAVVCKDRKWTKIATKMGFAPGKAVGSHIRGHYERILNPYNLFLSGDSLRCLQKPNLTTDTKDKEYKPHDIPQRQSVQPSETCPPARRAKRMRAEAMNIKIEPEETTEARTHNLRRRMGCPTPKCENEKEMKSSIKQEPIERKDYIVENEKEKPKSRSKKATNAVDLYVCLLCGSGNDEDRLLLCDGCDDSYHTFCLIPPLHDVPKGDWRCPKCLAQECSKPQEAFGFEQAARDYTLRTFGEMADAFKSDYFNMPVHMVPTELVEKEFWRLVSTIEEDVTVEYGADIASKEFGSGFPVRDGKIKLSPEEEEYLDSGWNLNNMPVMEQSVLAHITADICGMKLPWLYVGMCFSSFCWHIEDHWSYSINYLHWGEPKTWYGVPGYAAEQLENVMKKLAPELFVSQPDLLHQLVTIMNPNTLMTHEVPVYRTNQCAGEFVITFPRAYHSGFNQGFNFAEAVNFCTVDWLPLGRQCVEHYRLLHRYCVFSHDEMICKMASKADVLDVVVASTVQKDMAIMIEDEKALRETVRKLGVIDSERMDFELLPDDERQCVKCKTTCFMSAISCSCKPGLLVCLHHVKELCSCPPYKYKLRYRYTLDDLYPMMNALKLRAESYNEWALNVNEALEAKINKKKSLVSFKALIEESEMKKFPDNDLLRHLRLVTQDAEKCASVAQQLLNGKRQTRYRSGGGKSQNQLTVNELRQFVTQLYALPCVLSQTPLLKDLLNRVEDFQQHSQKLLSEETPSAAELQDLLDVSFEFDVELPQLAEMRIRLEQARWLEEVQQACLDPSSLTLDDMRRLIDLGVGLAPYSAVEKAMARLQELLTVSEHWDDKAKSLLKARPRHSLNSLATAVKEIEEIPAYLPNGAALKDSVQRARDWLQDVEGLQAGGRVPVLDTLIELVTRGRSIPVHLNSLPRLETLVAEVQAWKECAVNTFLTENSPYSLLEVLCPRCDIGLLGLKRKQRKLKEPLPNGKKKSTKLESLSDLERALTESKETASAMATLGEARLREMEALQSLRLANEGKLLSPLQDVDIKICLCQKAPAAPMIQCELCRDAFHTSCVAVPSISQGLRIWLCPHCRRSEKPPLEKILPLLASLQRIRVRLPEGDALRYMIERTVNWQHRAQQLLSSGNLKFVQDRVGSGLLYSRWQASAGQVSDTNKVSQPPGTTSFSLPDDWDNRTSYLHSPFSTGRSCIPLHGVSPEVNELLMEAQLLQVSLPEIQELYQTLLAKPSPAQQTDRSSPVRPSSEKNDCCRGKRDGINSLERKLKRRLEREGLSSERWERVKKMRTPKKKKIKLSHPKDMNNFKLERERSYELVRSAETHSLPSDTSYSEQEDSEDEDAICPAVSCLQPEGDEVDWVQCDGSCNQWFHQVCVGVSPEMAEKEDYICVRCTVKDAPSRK
Summary of the method: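 KDM5BDeltaAP (200nM final) in 50mM HEPES pH 7.5, 0.01% Tween-20 was preincubated with compound for 10 min at room temperature. A substrate mix of 12.5uM H3K4Me3, 25uM a-ketoglutarate, ascorbate, Fe2+, NAD+ and formaldehyde dehydrogenase was then added. NADH fluorescence (340/450 nm) was read initially and after 30 min.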

[3] = qHTS Assay for Lipid Storage Modulators (AID 1519; calls by dose curve; further: on the % scale 0 is the no-effect control and ±100 the full control effect); settings: Drosophila S3 cells, BODIPY lipid droplet/cell ratio, laser cytometry; at 57.5 µM (top of the series); cells loaded with oleic acid
Summary of the method: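 Cells seeded at 5,000 per well were treated with compounds over a concentration series and loaded with oleic acid (400 uM, as added). Lipid droplet fluorescence (488 nm excitation, 500-530 nm channel) was read by laser-scanning cytometry and normalized to 20 uM Triacsin C.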

[4] = Counterscreen for APE1 Inhibitors: Fluorescent Dye Displacement Validation Assay (AID 1707); settings: fluorescent dye displacement from DNA; further: potency means the concentration at half of the fitted maximal effect
Summary of the method: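 Reaction mixture of 250 nM Thiazole Orange and 50 nM double-stranded abasic-site DNA was dispensed, compounds were pin-transferred, and fluorescence was read at endpoint (480 nm ex, 540 nm em). Reduced fluorescence indicated dye displacement by DNA binding.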

[5] = molecular target: Endonuclease 4 (Escherichia coli (strain K12)) (UniProt P0A6C1); experiment: Counterscreen for APE1 Inhibitors: qHTS Validation Assay for Inhibitors of Endonuclease IV (AID 1708); further: potency means the concentration at half of the fitted maximal effect; settings: E. coli endonuclease IV, DNA cleavage fluorescence; series mostly up to 57.1 µM
Summary of the method: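 Incision of a double-stranded 50 nM TAMRA/BHQ-2 abasic substrate was followed kinetically (525/598 nm, reads every 60 s) after 15 min enzyme–compound preincubation with 2 nM EndoIV in pH 7.5 Tris buffer with MgCl2, DTT and Tween-20; concentration-response format.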

[6] = qHTS for differential inhibitors of proliferation of Plasmodium falciparum line W2 (AID 1883); settings: Potency: Plasmodium falciparum W2 proliferation inhibition; series mostly up to 28.7 µM;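 further: potency means the concentration at half of the fitted maximal effect; parasites grown with compound for 72 h before lysis and staining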
[7] = molecular target: N-terminal Xaa-Pro-Lys N-methyltransferase 1 (Homo sapiens) (UniProt Q9BV86); experiment: qHTS Assay for Inhibitors of N-terminal methyltransferase 1 (NTMT1): LOPAC validation of the NTMT1 SAHH-coupled ThioGlo3 Assay (AID 1347143); settings: recombinant NTMT1, SAHH-coupled ThioGlo3 fluorescence; series mostly up to 114 µM;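 further: SAH from peptide methylation measured as thiol fluorescence via SAHH coupling and ThioGlo3; potency means the concentration at half of the fitted maximal effect; nearly all actives have a fitted effect of over 70% in size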
UniProt Q9BV86, sequence (Q9BV86 whole entry, looked up): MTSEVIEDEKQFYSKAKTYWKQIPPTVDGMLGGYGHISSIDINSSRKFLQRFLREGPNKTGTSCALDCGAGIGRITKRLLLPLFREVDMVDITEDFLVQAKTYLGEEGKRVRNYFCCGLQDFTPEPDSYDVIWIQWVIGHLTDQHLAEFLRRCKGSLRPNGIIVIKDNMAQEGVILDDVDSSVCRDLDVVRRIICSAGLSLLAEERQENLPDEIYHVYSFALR
Summary of the method: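 NTMT1 125nM + cpds (various conc.), 1 min RT; add SAM 100uM/SAHH 10uM/ThioGlo3 15uM (addition mix). SAHH-coupled thiol detection, Ex340/Em450, t0 and 30 min RT; signal normalized to background. LOPAC 1280-cpd pilot.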

[8] = system: Zika virus NS2B-NS3 protease (unlinked); experiment: Optimization of GU AMC qHTS for Zika virus inhibitors: Unlinked NS2B-NS3 protease assay (AID 1347151); settings: recombinant ZIKV NS2B-NS3 protease, fluorogenic AMC substrate; series mostly up to 52.5 µM; further: potency means the concentration at half of the fitted maximal effect; nearly all actives have a fitted effect of over 80% in size
Summary of the method: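 Percent inhibition is derived from the 15-min change in AMC fluorescence, normalized against no-inhibitor and no-enzyme controls, then fitted to a 4-parameter Hill curve. Aprotinin was the intraplate control.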

[9] = molecular target: Papain (Carica papaya) (UniProt P00784); experiment: Primary qHTS assay for inhibitors of the protease papain (AID 1645873); settings: papain Z-FR-AMC cleavage, AMC fluorescence; series mostly up to 49.8 µM;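 further: papain turnover of Z-FR-AMC read as the AMC fluorescence gain over 10 min; potency means the concentration at half of the fitted maximal effect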
UniProt P00784, sequence (P00784 whole entry, looked up): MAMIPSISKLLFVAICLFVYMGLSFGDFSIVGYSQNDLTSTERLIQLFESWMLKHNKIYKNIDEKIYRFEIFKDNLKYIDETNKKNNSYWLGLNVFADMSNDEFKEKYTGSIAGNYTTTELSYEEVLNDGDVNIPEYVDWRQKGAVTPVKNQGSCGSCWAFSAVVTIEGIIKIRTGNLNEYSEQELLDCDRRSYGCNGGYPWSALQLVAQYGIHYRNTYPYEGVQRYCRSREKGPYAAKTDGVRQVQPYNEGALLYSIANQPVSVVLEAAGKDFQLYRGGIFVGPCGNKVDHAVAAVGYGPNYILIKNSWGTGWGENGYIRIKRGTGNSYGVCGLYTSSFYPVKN

[10] = NCATS anti-infectives library activity on HEK293 viability as a counter-qHTS vs the C. elegans viability qHTS (AID 1745854); settings: HEK293 viability counter-screen; series mostly up to 41.8 µM;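 further: potency means the concentration at half of the fitted maximal effect; HEK293 cells exposed to compounds for 24 hr before the viability read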
Summary of the method: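 Counter-screen for cytotoxicity: HEK293, 24 hr, 37C, compounds up to 41.7 uM final (a dilution series, 1:5). Readout CellTiter-Glo luminescence, 10 min RT. Digitonin control, 83.3 uM final.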

[11] = molecular target: Calcium and integrin-binding protein 1 (Homo sapiens) (UniProt Q99828); experiment: Confirmatory qHTS for Identification of Calcium Integrin Binding Protein 1 (CIB1) Competitor (AID 1508617); settings: CIB1 binding competition assay, biochemical qHTS; series mostly up to 114 µM; further: on the % scale 0 is the no-effect control and ±100 the full control effect; nearly all actives have a fitted effect of over 65% in size
UniProt Q99828, sequence (Q99828 whole entry, looked up): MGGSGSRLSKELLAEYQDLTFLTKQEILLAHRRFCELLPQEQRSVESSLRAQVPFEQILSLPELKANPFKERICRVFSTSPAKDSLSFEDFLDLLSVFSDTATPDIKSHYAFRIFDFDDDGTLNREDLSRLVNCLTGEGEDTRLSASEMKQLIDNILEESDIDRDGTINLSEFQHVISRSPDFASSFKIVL
Summary of the method: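 FP competition: CIB1-GST (1 uM final) in 5 mM HEPES pH 7.4, 125 mM NaCl, 5 mM CaCl2, 0.01% Tween20 preincubated 15 min RT with compounds (up to 114 uM), then FITC-alphaIIb peptide (100 nM), 15 min RT; Ex 480/Em 540.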

[12] = molecular target: Furin (Homo sapiens) (UniProt P09958); experiment: Furin counterscreen qHTS for Zika virus inhibitors (AID 1347149); settings: furin enzymatic counterscreen, fluorogenic substrate; activity change, negative = inhibition: at 57.5 µM (top of the series); further: potency means the concentration at half of the fitted maximal effect; nearly all actives have a fitted effect of over 70% in size
UniProt P09958, sequence (P09958 whole entry, looked up): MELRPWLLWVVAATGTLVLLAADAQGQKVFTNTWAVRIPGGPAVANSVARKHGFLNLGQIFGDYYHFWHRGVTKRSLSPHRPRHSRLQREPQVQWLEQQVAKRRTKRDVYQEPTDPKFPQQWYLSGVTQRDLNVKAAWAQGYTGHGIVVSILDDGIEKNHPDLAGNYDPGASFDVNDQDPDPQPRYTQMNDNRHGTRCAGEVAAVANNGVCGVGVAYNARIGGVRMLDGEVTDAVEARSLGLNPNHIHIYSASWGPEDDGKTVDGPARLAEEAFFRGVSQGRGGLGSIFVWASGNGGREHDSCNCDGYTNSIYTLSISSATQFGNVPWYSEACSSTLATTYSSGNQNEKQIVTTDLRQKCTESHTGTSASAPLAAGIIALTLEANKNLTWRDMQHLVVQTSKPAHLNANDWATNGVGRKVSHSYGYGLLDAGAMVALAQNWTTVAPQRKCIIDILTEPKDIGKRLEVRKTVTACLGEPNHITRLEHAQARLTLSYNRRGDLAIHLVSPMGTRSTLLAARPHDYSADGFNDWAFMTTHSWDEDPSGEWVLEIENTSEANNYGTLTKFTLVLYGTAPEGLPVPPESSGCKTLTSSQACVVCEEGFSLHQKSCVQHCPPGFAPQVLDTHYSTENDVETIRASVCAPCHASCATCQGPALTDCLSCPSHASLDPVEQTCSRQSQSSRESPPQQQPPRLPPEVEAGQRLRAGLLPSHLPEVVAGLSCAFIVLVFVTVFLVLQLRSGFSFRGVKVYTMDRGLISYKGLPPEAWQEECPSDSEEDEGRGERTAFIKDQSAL
Summary of the method: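 Counterscreen measures cleavage of 2 microM BOC-RVRR-AMC, below its ~15 microM Km, by 5 nM full-length human furin at pH 7.0 after a 15-min compound preincubation. Inhibition derives from the 15-min fluorescence increase at 37C.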

[13] = Cell Viability - H-4-II-E (AID 543); settings: H-4-II-E rat hepatoma viability; series mostly up to 92.2 µM;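 further: cells exposed to compound for 40 hours; on the % scale 0 is the no-effect control and ±100 the full control effect; nearly all actives have a fitted effect of over 35% in size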
Summary of the method: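 Cells seeded at 1500 per well and rested 5 hr; compounds added; 40 hr incubation at 37 °C; CellTiter-Glo added, 20 min at room temperature; luminescence read. Hill-equation fits gave AC50.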

[14] = Cell Viability - LYMP2-012 (AID 982); settings: LYMP2-012 lymphoblastoid cell viability qHTS; series mostly up to 92.2 µM;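 further: cellular ATP by luciferase luminescence where a drop means cytotoxicity; cells exposed to compound for one day before reading; 0% = DMSO only and full loss = 92 µM tetraoctylammonium bromide; nearly all actives have a fitted effect of over 55% in size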
[15] = Cell Viability - LYMP2-014 (AID 983); settings: LYMP2-014 lymphoblastoid cells, viability qHTS; series mostly up to 92.2 µM;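 further: cells exposed to compound for 24 h at 37 °C; plate controls were DMSO only for no effect and 92 µM tetraoctylammonium bromide for full effect; nearly all actives have a fitted effect of over 50% in size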
Summary of the method: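 Cells are plated at 2500/well and left 5 hr at 37 C. Compounds are added across a concentration range and incubated 24 hr at 37 C in complete medium. CellTiter-Glo is added, and luminescence is read after 30 min at room temperature.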

[16] = qHTS Assay for Identification of Small Molecule Inducers of Hypoxia Response (AID 2120; active means well fitted curve in the direction sought with a large enough effect in the signal ratio, with a control signal flat, not every such curve was filed as active; inconclusive means small, poorly fitted or top-dose-only effect, or a change in a side signal; inactive means no such curve, though single readings can be large or run the other way; the % refers to the signal ratio; further: 0% is about no effect); settings: hypoxia response reporter cells, beta-lactamase ratio readout; at 104 µM (top of the series)
Summary of the method: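 Cell-based qHTS for reporter induction: hypoxia response element controlled beta-lactamase in ME-180 cells. Compounds incubated 17 h at 37 degrees C; activity from blue/green (460/530 nm) ratio, inducers ranked by AC50.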

[17] = molecular target: Androgen receptor (Homo sapiens) (UniProt P10275); experiment: qHTS assay for small molecule agonists of androgen receptor signaling (AID 588515; active means well fitted curve in the direction sought with a large enough effect in the signal ratio, with a control signal flat; inconclusive means small, poorly fitted or top-dose-only effect, or effect the other way, or a change in a side signal; inactive means no such curve, though single readings can be large or run the other way; the % refers to the signal ratio; further: on the % scale 0 is the no-effect control and ±100 the full control effect); settings: AR-UAS-bla HEK293, beta-lactamase ratio, agonist 16 h; activation: stronger effect = higher value
UniProt P10275, sequence (P10275 whole entry, looked up): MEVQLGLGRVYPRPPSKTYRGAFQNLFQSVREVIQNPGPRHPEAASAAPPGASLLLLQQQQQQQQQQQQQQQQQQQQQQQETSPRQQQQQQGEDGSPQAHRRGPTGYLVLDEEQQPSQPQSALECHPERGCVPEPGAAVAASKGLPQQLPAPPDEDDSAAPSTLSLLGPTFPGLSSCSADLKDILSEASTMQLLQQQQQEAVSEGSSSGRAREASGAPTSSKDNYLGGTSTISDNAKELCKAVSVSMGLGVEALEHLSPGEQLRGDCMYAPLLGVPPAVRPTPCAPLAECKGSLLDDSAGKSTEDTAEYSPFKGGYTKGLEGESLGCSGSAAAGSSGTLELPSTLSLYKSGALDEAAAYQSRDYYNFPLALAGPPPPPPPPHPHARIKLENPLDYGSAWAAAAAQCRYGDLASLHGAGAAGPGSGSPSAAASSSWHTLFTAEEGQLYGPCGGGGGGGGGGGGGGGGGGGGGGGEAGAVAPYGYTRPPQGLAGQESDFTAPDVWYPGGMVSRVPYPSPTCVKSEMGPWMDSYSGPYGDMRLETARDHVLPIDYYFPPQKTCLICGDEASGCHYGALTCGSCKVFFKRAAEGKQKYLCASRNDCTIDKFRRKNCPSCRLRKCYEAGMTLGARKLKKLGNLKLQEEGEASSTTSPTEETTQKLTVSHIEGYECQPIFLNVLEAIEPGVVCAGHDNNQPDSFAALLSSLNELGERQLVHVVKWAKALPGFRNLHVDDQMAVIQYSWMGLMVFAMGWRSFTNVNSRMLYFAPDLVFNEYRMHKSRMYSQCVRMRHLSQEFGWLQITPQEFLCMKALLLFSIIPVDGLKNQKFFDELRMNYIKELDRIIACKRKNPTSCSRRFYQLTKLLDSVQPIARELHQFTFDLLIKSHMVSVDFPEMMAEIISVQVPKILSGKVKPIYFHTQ
Summary of the method: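 Stimulation of an AR-responsive β-lactamase reporter in GripTite HEK293 cells was measured after 16 h compound exposure at 37 °C, via CCF4 fluorescence after 2 h RT. EC50 from Hill fits, normalized to R1881 at 30 nM.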

[18] = NCATS anti-infectives library activity on the primary C. elegans qHTS viability assay (AID 1745855; calls by dose curve); settings: C. elegans worm area imaging, day 7; series mostly up to 41.8 µM
Summary of the method: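 GFP read-out by 488 nm laser cytometry at day 0, 3 and 7, gated on object perimeter, area and peak intensity, scored viability of PE254-GFP-FLuc worms exposed to compound in S medium with bacterial capsules at 21 °C.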

[19] = molecular target: Vitamin D3 receptor (Homo sapiens) (UniProt P11473); experiment: qHTS assay for small molecule antagonists of vitamin D receptor signaling (AID 588541; calls by dose curve;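 further: receptor activated by calcitriol during compound treatment; on the % scale 0 is the no-effect control and ±100 the full control effect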); settings: HEK293T VDR-UAS-bla, beta-lactamase ratio, antagonist mode; activity change, negative = inhibition: at 76.7 µM (top of the series)
Tags describe the fitted curve by direction and shape.

CC(N)C(=O)OC(C)(C)Cc1ccc(Cl)cc1 (centres undefined)
Potency [1]: inactive | Potency [2]: inactive

CCOC(=O)c1cnc2c(cnn2CC)c1NN=C(C)C
activity change, negative = inhibition [3]: inconclusive: 1.04% | Potency [4]: inconclusive [inhibitor, single point] | Potency [5]: inconclusive [inhibitor, full curve, poor fit] | Potency [6]: inconclusive [inhibitor, partial curve] | Potency [7]: active: 56.2 µM | Potency [8]: inconclusive [inhibitor, single point] | Potency [9]: inconclusive [inhibitor, partial curve, poor fit]

CC[C@H](C)[C@H](NC(=O)[C@H]([C@@H](C)CC)N(C)C(C)=O)C(=O)N[C@H](C(=O)N[C@@H](CC(C)C)C(=O)[C@@]1(C)CO1)[C@@H](C)O
Potency [10]: inconclusive [cytotoxic, partial curve, poor fit]

COC(=O)c1cc(Cl)ccc1NS(=O)(=O)C(F)(F)F
Potency [11]: inactive

CC(C)(C)Sc1c(CC(C)(C)C(=O)O)n(Cc2ccc(Cl)cc2)c2ccc(OCc3ccc4ccccc4n3)cc12
Potency [12]: inconclusive [inhibitor, full curve]

CC(C)C(C)(C)C(C)(C)C(C)(C)S
Potency [13]: inactive | Potency [14]: inactive | Potency [15]: inactive | activation [16]: inactive: 1.52% | activation [17]: inactive: -7.25% and inactive: 10.8%

Cn1nc(C(C)(C)C)cc1C(=O)N[C@@H](Cc1cccc(Cl)c1)C(=O)NCC#N
Potency [18]: inactive

CC(=O)[C@@]1(O)CC[C@H]2[C@@H]3CCC4=CC(=O)CC[C@]4(C)[C@H]3CC[C@@]21C
activity change, negative = inhibition [19]: inconclusive: 14.8%
